The source of these data is the supplement of paper PMC4894684.

Structures can show the parent of a compound that is named as a salt. ± gives the standard deviation of the averaged measurements. Screen size: about 1,000 compounds; about 15 (2%) showed an effect of 50% or more. This is one part of the list.
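Note: confluent HFF monolayers, run in parallel with the Toxoplasma growth screen as a host toxicity counterscreen.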

For this experiment, the system named is HFF. As to the kind of experiment: uninfected host cell viability relative to vehicle control; higher = less host cell toxicity. The following applies: 5 µM; 72 h; oxygen 21 %.
Turning to `CCOC(=O)c1ncc2[nH]c3cccc(OC(C)C)c3c2c1C`, the “uninfected host cell viability” value stood at 90.16 ± 0.27%.
In the case of `CS(=O)(=O)CCNCc1nc(-c2ccc3ncnc(Nc4ccc(OCc5cccc(F)c5)c(Cl)c4)c3c2)cs1`, the “uninfected host cell viability” value is 82.9 ± 2.2%.
With `COc1ccc(Nc2ncnc3ccc(OC)cc23)cc1` [MPMQ hydrochloride], the “uninfected host cell viability” value turned out to be 79.41 ± 0.13%.
Turning to `C[C@@H](CN1CC(=O)NC(=O)C1)N1CC(=O)NC(=O)C1` [Dexrazoxane hydrochloride], the “uninfected host cell viability” value was 84.2 ± 4%.
Consider `CNCCC(Oc1ccc(C(F)(F)F)cc1)c1ccccc1` (stereo unspecified) [Fluoxetine hydrochloride], for which the “uninfected host cell viability” value is 80.7 ± 2.8%.
The same measure for `C#CCN1C(C)=C(C(=O)OC)C(c2cccc([N+](=O)[O-])c2)C(C(=O)OCC)=C1C` (stereo unspecified): 93.8 ± 1.5%.
As for `OCc1cc(C(O)CNCCCCCCOCCCCc2ccccc2)ccc1O` (stereo unspecified) [Salmeterol], the figure is 103 ± 14%; as for `Cc1c(C(=O)NN2CCOCC2)nn(-c2ccc(Cl)cc2Cl)c1-c1ccc(I)cc1`, 90.8 ± 2.4%.
`CC(C)Oc1ccc2c(=O)c3cc(C(=O)O)ccc3oc2c1`: the “uninfected host cell viability” value was 96.9 ± 2.2%.
For `CCC1=C(C)CN(C(=O)NCCc2ccc(S(=O)(=O)NC(=O)N[C@H]3CC[C@H](C)CC3)cc2)C1=O` [Glimepiride], the “uninfected host cell viability” value stood at 89.39 ± 0.47%.
For `Oc1ccc(-c2nc3cc(O)cc(Br)c3o2)cc1`, the “uninfected host cell viability” value was 88.8 ± 1.9%.
On to `O=C1CCc2cc(OCCCCc3nnnn3C3CCCCC3)ccc2N1` [Cilostazol], for which the “uninfected host cell viability” value is 98 ± 3.6%.
Consider `Cc1c[nH]c(=O)n(CCCN2CCN(c3ccccc3OCC(F)(F)F)CC2)c1=O`, for which the “uninfected host cell viability” value was 85.64 ± 0.49%.
As for `CC(C)NCC(O)COc1cccc2ccccc12` (stereo unspecified) [Propranolol hydrochloride], the “uninfected host cell viability” value came out at 85.9 ± 1.4%.
For the compound `COC(=O)[C@@H]1[C@H]2C[C@H]3c4[nH]c5ccccc5c4CCN3C[C@@H]2CC[C@@H]1O` [Yohimbine hydrochloride], the “uninfected host cell viability” value worked out at 89.1 ± 1.2%.
Turning to `Oc1c2ccccc2c2c3c(cccc13)N=N2`, the “uninfected host cell viability” value is 69.9 ± 1%.
As to `CC1(C)NC(=O)N(c2ccc([N+](=O)[O-])c(C(F)(F)F)c2)C1=O` [Nilutamide], the “uninfected host cell viability” value is 85 ± 4%.
The same measure for `N[C@@H](CC(=O)Nc1ccc(Oc2cc(F)c(F)cc2Br)cc1)C(=O)O`: 95 ± 0.96%; for `CC1(C)Oc2ccc(C#N)cc2[C@H](N2CCCC2=O)[C@H]1O` [Cromakalim]: 87.3 ± 4%.
`COc1cccc(OC)c1OCCNCC1COc2ccccc2O1` (stereo unspecified) [WB 4101 hydrochloride]: the “uninfected host cell viability” value was 86.45 ± 0.5%.
Regarding `N=C(N)NC(=O)c1nc(Cl)c(N)nc1N` [Amiloride hydrochloride], the “uninfected host cell viability” value worked out at 99.21 ± 0.71%.
Turning to `CC(Cc1ccccc1)(NC(=O)CN)c1ccccc1` (stereo unspecified) [Remacemide hydrochloride], the “uninfected host cell viability” value amounted to 85.5 ± 1.2%.
As for `O=[N+]([O-])c1cccc2c(Br)[nH]nc12` [3-Bromo-7-nitroindazole], the figure is 83.8 ± 3.7%.
With `CCS(=O)(=O)N(C)[C@H]1c2cc(C#N)ccc2OC(C)(C)[C@@H]1O` [(-)-[3R,4S]-Chromanol 293B], the “uninfected host cell viability” value amounted to 91.1 ± 2%.
With `CNS(=O)(=O)Cc1ccc2[nH]cc(CCN(C)C)c2c1` [Sumatriptan succinate], the “uninfected host cell viability” value stood at 99.6 ± 5%.
With `CNC(=O)[C@@H](Cc1ccccc1)N(C)C(=O)[C@@H](Cc1ccc2ccccc2c1)N(C)C(=O)/C=C/CC(C)(C)N` [Tabimorelin], the “uninfected host cell viability” value turned out to be 79.1 ± 1.2%.
As for `CC(C)c1ccc(C(=O)c2cccs2)c(SCCCCCCCCN(C)C)n1`, the figure is 74.54 ± 0.56%; as for `CCC(CC)(CC(=O)Nc1cccc(/C=C/c2nc(C3CCC3)cs2)c1)C(=O)O` [Cinalukast], 86.7 ± 1.5%.
In the case of `CC(C)[C@H](CO)Nc1nc(Nc2cccc(Cl)c2)c2ncn(C(C)C)c2n1` [Purvalanol A], the “uninfected host cell viability” value was found to be 78 ± 2.9%.
Turning to `NC(=O)N1c2ccccc2CC(O)c2ccccc21` (stereo unspecified) [Licarbazepine], the “uninfected host cell viability” value worked out at 86.1 ± 1.1%.
`CNC(=O)[C@H]1O[C@@H](n2cnc3c(NCc4cccc(I)c4)ncnc32)[C@H](O)[C@@H]1O`: the “uninfected host cell viability” value stood at 80.94 ± 0.44%.
Take `N#CC(=C(/N)Sc1ccccc1N)/C(C#N)=C(/N)Sc1ccccc1N`: the “uninfected host cell viability” value is 78.69 ± 0.74%.
As for `NS(=O)(=O)c1cccc2c1c([N+](=O)[O-])cc1nc(O)c(O)nc12` [NBQX disodium salt], the figure is 87.215 ± 0.027%; as for `NS(=O)(=O)c1cccc2c1c([N+](=O)[O-])cc1nc(O)c(O)nc12`, 83 ± 3.5%.
Consider `C=CC(=O)c1ccc2ccccc2c1`, for which the “uninfected host cell viability” value worked out at 87.4 ± 2.4%.
Regarding `COc1ccc([C@H]2CNC(=O)C2)cc1OC1CCCC1` [(S)-(+)-Rolipram], the “uninfected host cell viability” value was 85.5 ± 1.8%.
Turning to `COc1ccccc1C1(O)CCN(CCCn2c3ccccc3c3ccccc32)CC1` [NNC 05-2090 hydrochloride], the “uninfected host cell viability” value stood at 81.9 ± 1.6%.
The same measure for `FC(F)(F)c1cc(COC2CCCNC2c2ccccc2)cc(C(F)(F)F)c1` [L-733,060 hydrochloride]: 78.8 ± 2.5%.
Turning to `COC(=O)c1sccc1S(=O)(=O)Nc1ccc(Nc2ccccc2)cc1OC`, the “uninfected host cell viability” value is 77.8 ± 0.79%.
As for `CC1Nc2ccc(Cl)cc2S(=O)(=O)N1` (stereo unspecified), the figure is 95.27 ± 0.86%.
In the case of `Nc1c(Br)cc(Br)cc1CN[C@H]1CC[C@H](O)CC1` [Ambroxol hydrochloride], the “uninfected host cell viability” value is 83.8 ± 1.4%.
For the compound `Nc1ccc(-c2nc3ccc(-c4nc5ccc(N)cc5[nH]4)cc3[nH]2)cc1`, the “uninfected host cell viability” value amounted to 89.4 ± 0.87%.
Consider `Cc1ccc(NC(=O)C(C)C)cc1C1CCN(Cc2ccc(Oc3ccc(F)c(F)c3)cc2)CC1`, for which the “uninfected host cell viability” value is 80.8 ± 2%.
For `Cc1nnc(-c2ccc3occ(-c4ccc([S+](C)[O-])cc4)c3c2)o1` (stereo unspecified), the “uninfected host cell viability” value was determined as 85.3 ± 3.4%.
Consider `COc1ccccc1N1CCN(CC(O)COc2cccc3ccccc23)CC1` (stereo unspecified) [Naftopidil hydrochloride], for which the “uninfected host cell viability” value was found to be 86.6 ± 1.6%.
On to `CN1CCC(=C2c3ccccc3CC(=O)c3sccc32)CC1` [Ketotifen fumarate], for which the “uninfected host cell viability” value turned out to be 86.9 ± 1.8%.
Regarding `CCCCCCCCCCC[C@@H](C[C@@H]1OC(=O)[C@H]1CCCCCC)OC(=O)[C@H](CC(C)C)NC=O` [Orlistat], the “uninfected host cell viability” value was 105 ± 3.2%.
In the case of `COc1ccc(-c2ccc(=N)n(CCCC(=O)O)n2)cc1`, the “uninfected host cell viability” value turned out to be 87.1 ± 1%.
With `CC(C)(Oc1ccc(Cl)cc1)C(=O)O` [Clofibric acid], the “uninfected host cell viability” value was 87.9 ± 1.5%.
Take `COc1ccc(C(=O)Nc2sc3c(c2C(N)=O)CCCC3)cc1OC`: the “uninfected host cell viability” value was 80.1 ± 2.9%.
As for `O=c1cc(N2CCNCC2)oc2c(-c3ccccc3)cccc12`, the figure is 87.4 ± 1.8%.
On to `CC1(C)C(=O)NC2=C1C(=O)C(=O)c1ccccc12`, for which the “uninfected host cell viability” value is 65.5 ± 2%.
Consider `CN1CCN(C2=Nc3cc(Cl)ccc3Nc3ccccc32)CC1` [Clozapine], for which the “uninfected host cell viability” value was determined as 81.5 ± 2%.
The same measure for `CCCCCCCCCCCCCCCC(=O)NCCO` [Palmitoylethanolamide]: 103 ± 4.7%; for `CC(C)NC[C@H](O)COc1ccc(CC(N)=O)cc1` [S-(-)-Atenolol]: 82.5 ± 2.5%.
With `O=c1cc(N2CCOCC2)oc2c1ccc1ccccc12`, the “uninfected host cell viability” value is 82.9 ± 0.9%.
